Read-outs that look alike come from different tables or passages of the source.
T1: recombinant Ex-FABP (Gallus gallus, UniProt P21760)
T1 sequence (P21760 23-178): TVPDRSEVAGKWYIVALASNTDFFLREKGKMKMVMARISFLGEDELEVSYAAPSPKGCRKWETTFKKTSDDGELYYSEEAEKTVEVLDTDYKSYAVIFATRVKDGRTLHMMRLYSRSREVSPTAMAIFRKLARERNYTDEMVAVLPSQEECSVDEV

T2: Ex-FABP (Gallus gallus, UniProt P21760, E171A/E172A/R48A)
T2 sequence (P21760 23-178 R48A/E171A/E172A): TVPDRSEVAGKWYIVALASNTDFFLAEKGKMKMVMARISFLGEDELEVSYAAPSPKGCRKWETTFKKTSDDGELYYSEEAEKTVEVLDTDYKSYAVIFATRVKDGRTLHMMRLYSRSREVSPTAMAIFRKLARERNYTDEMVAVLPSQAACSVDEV


Key:
recombinant Ex-FABP = target: T1, recombinant Ex-FABP; assay: Fluorescence quenching; assay type: binding, chicken
Scn = conditions: cited from earlier work
Ex-FABP [1] = target: T2, Ex-FABP; assay: Co-purification/co-crystallization of LPA with Ex-FABP; conditions: suggested by co-purification/co-crystallization behavior; not quantitated
Ex-FABP [2] = target: Ex-FABP (Gallus gallus, UniProt P21760); assay: Qualitative siderophore binding assay; design: species or system chicken; conditions: ten-fold excess ferric siderophore, UV-VIS spectroscopy
[3] = tested on: P. aeruginosa (strain PAO1); assay: Bacterial growth inhibition assay, P. aeruginosa; conditions: 10 μM protein, M9 minimal media, iron-limited conditions
[4] = tested on: B. subtilis (strain ATCC 6051); assay: Bacterial growth inhibition assay, B. subtilis; conditions: iron-free medium, OD600
[5] = protein 100 nM in TBS pH 7.4, detection threshold KD ≤ 600 nM

Molecule | Kd (recombinant Ex-FABP; [5]) [nM] | fluorescence quenching (FQ) of Ex-FABP, in words (recombinant Ex-FABP) | also measured
CC(=O)N[C@@H](CCCN([O-])C(=O)/C=C(\C)CCO)C(=O)OCC/C(C)=C/C(=O)N([O-])CCC[C@@H]1NC(=O)[C@H](CCCN([O-])C(=O)/C=C(\C)CCO)NC1=O.[Fe+3] [[Fe^III(Coprogen)], coprogen] | > 600 | – | –
exochelin [[Fe^III(ExochelinMS)]] | > 600 | – | –
ferric monoglucosylated Ent [[Fe^III(MGE)]^3−] | 0.07 ± 0.02 | strongly quenched | binding to Scn, in words (Scn; ref Fischbach et al., 2006a, Fischbach et al., 2006b): strictly precluded from binding; equilibrium dissociation constants (KD), in words (recombinant Ex-FABP): nanomolar
O=C(N[C@H]1COC(=O)[C@@H](NC(=O)c2cccc(O)c2O)COC(=O)[C@@H](NC(=O)c2cccc(O)c2O)COC1=O)c1cccc(O)c1O [apo(Ent), enterobactin] | – | strongly quenched | –
C[C@H]1OC(=O)[C@@H](NC(=O)CNC(=O)c2cccc(O)c2O)[C@@H](C)OC(=O)[C@@H](NC(=O)CNC(=O)c2cccc(O)c2O)[C@@H](C)OC(=O)[C@H]1NC(=O)CNC(=O)c1cccc(O)c1O [[Fe^III(BB)]^3−] [bacillibactin] | 14 ± 2 | – | –
CC(=O)N(O)CCCC[C@H](NC(=O)CC(O)(CC(=O)N[C@@H](CCCCN(O)C(C)=O)C(=O)O)C(=O)O)C(=O)O [[Fe^III(Aerobactin)], aerobactin] | > 600 | – | –
ferric petrobactin [[Fe^III(Petrobactin)]^2−] | – | does not show measurable fluorescence quenching | Kd (recombinant Ex-FABP; pH 7.4): > 600 nM
pyoverdine [[Fe^III(Pyoverdine)]^1−] | > 600 | Significant FQ was not observed | –
CC(=O)N([O-])CCCCCNC(=O)CCC(=O)N([O-])CCCCCNC(=O)CCC(=O)N([O-])CCCCCN.[Fe+3] [[Fe^III(DesferrioxamineB)], ferric desferrioxamine] | > 600 | does not show measurable fluorescence quenching | –
lysophosphatidic acid [LPA] | – | – | Ex-FABP/LPA dissociation constants, in words (Ex-FABP [1]): at least as good as micromolar
C[C@H]1OC(=O)[C@@H](NC(=O)CNC(=O)c2cccc(O)c2O)[C@@H](C)OC(=O)[C@@H](NC(=O)CNC(=O)c2cccc(O)c2O)[C@@H](C)OC(=O)[C@H]1NC(=O)CNC(=O)c1cccc(O)c1O [apo(BB), bacillibactin] | 30 ± 2 | strongly quenched | –
monoglucosylated Ent [apo(MGE)] | 1.1 ± 0.15 | strongly quenched | –
O=C1N[C@H]2COC(=O)[C@@H]3COC(=O)[C@H](COC2=O)NC(=O)c2cc([C@@H]4O[C@H](CO)[C@@H](O)[C@H](O)[C@H]4O)cc4c2[O][Fe-3]25([O]c6cccc1c6[O]2)([O]4)[O]c1cc([C@@H]2O[C@H](CO)[C@@H](O)[C@H](O)[C@H]2O)cc(c1[O]5)C(=O)N3 [[Fe^III(DGE)]^3−, ferric diglucosylated Ent] | > 600 | does not show measurable fluorescence quenching | –
enterobactin [[Fe^III(Ent)]^3−] | 0.22 ± 0.06 | strongly quenched | –
alcaligin [[Fe^III2(Alcaligin)3]] | > 600 | – | –
ferric rhizoferrin [[Fe^III(Rhizoferrin)]] | > 600 | does not show measurable fluorescence quenching | –
ferric pyochelin [[Fe^III(Pyochelin)2]^1−] | > 600 | Significant FQ was not observed | –
C[C@H]1OC(c2ccccc2O)=N[C@@H]1C(=O)N(CCCCNC(=O)c1cccc(O)c1O)CCCNC(=O)c1cccc(O)c1O [[Fe^III(PaB)]^2−, parabactin] | 42 ± 8 | – | –
CN1[C@@H]([C@H]2CSC(c3ccccc3O)=N2)SC[C@H]1C(=O)O [pyochelin] | – | – | binding to Scn, in words (Scn; ref Holmes et al., 2005): fail to bind measurably; retention by Ex-FABP after extensive washing (Ex-FABP [2]): retained
Scn: mammalian Siderocalin, family archetype lipocalin (protein, UniProt P80188 21-198, looked up) Neutrophil …: QDSTSDLIPAPPLSKVPLQQNFQDNQFQGKWYVVGLAGNAILREDKDPQKMYATIYELKEDKSYNVTSVLFRKKKCDYWIRTFVPGCQPGEFTLGNIKSYPGLTSYLVRVVSTNYNQHAMVFFKKVSQNREYFKITLYGRTKELTSELKENFIRFSKSLGLPENHIVFPVPIDQCIDG | – | – | effect on P. aeruginosa growth [3]: do not effect the growth; effect on B. subtilis growth [4]: inhibit growth

Reference: article PMC3240821 (Structure (London, England : 1993), 2011)
